In publication PMC4336329 (PLoS ONE, 2015):
Screen size: about 310,000 compounds; about 2,200 (0.71%) showed an effect of 50% or more. The effect is printed as a negative number. This is one part of the list.

biological target: human ether-à-go-go-related gene (hERG) potassium channel (human, UniProt Q12809); assay: primary screen, population patch clamp on CHO cells stably expressing hERG
Sequence (Q12809 whole entry, looked up): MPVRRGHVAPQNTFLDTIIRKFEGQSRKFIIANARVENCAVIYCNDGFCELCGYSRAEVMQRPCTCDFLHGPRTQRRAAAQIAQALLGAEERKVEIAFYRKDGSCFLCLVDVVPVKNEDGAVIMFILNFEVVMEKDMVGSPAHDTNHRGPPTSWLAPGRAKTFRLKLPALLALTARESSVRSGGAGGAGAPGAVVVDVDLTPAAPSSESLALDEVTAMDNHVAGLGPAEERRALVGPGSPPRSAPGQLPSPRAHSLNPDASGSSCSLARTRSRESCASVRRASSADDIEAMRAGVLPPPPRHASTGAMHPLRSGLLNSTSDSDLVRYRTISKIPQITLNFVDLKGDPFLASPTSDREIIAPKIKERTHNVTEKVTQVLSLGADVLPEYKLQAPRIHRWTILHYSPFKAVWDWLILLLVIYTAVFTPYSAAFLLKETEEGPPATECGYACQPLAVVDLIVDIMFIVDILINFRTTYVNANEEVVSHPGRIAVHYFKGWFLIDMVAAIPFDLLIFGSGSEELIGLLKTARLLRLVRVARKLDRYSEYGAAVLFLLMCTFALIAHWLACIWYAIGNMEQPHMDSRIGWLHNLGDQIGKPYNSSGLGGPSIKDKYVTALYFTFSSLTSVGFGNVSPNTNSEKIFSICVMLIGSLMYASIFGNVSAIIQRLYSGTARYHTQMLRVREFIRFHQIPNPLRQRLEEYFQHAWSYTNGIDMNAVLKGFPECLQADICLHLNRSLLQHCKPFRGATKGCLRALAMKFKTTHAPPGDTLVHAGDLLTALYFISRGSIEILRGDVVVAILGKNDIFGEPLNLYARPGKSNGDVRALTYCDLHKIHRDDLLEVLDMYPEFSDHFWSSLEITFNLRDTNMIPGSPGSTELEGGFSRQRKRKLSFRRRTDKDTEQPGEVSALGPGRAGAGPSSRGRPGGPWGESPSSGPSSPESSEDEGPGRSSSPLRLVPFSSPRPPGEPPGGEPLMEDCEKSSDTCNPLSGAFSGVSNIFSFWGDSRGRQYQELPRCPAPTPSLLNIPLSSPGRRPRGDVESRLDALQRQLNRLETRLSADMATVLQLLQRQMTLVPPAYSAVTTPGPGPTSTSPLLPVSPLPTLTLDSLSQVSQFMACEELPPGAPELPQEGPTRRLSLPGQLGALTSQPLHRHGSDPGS

SMILES	hERG current change (%, negative = inhibition) at 1uM
COc1ccc(C)cc1S(=O)(=O)N(CC(N)=O)Cc1ccccc1	17.4%
CC(C)c1nc(C#N)c(NCCCn2ccnc2)o1	19.7%
O=C(C1=C[C@@H](C2CC2)C[C@@H](OCCCCO)O1)N1CCOCC1	5.01%
CCCC(=O)Nc1sc(C)c(C)c1C(=O)Nc1cccc(C)c1	14.2%
C/C(=N\Nc1ccc(C(=O)c2c(C)cc3ccccn23)cc1[N+](=O)[O-])c1ccc(O)cc1	13.2%
c1ccc(CNc2cncnc2)cc1	21.1%
Cc1nn(-c2ccccc2)c(Cl)c1C(=O)N(C)CC(=O)Nc1cccc(F)c1	-2.39%
COc1ccc(Nc2sc(C(=O)Nc3cccc(Cl)c3)c(N)c2C(=O)Nc2ccccc2OC)cc1	0.177%
CCC(C)(C)NC(=O)C(c1ccc(OC)cc1)N(C(=O)CCC(=O)Nc1cc(C)on1)c1ccccc1F (stereo not drawn)	9.83%
O=C(O)CN1C(c2ccccc2)=Nc2ccc(Br)cc2C1c1ccccc1 (stereo not drawn)	9.73%
O=C1Nc2cc(C(=O)N3CCN(c4ccc(F)cc4)CC3)ccc2NC1CSCc1cccc(F)c1 (stereo not drawn)	13.2%
O=C(NCC(=O)N1CCN(c2ccccc2F)CC1)c1cccs1	1.44%
O=C(c1cc(-c2ccccc2)nc2ccccc12)N1CCN(C2CCS(=O)(=O)C2)CC1 (stereo not drawn)	-4%
Cc1ccc(-c2cn3c(=S)[nH]nc3s2)cc1	6.27%
CSCCC(NS(=O)(=O)c1ccc(C)cc1)C(=O)NC1CCCCC1 (stereo not drawn)	4.42%
Cc1cccc(CCNC(=O)CCS(=O)(=O)c2ccc(Br)cc2)c1	14%
C/C(=N\NC(=O)c1ccc(=O)[nH]n1)c1cccnc1	13.9%
Cn1c(=O)[nH]c(=O)c2c1nc(CN(Cc1ccccc1)Cc1ccccc1)n2CCN1CCOCC1	-4.58%
CCOc1ccc(C(=O)CCC(=O)NC2=NCCS2)cc1	13.2%
O=C(CSc1n[nH]c(-c2ccncc2)n1)Nc1ccccc1	16.6%
CCCCNC(=O)CCCCCn1c(=O)[nH]c2cc(C(=O)OC)ccc2c1=O	10.9%
Cc1cccc(S(=O)(=O)Nc2ccc(C)c3c2OC(C)(C)C3)c1	-0.661%
Cc1cc(C)c2c(c1)NC(=O)C2(O)CC(=O)c1cccs1 (stereo not drawn)	7.18%
O=C(NNC(=O)c1ccccc1-n1cccc1)c1ccccc1	1.86%
